In the BET-seq Pho4 binding data (Le et al. 2018):
The list shows a part of the results. The energies were worked out here from pooled read counts, against the library average; single values are noisy.

target: T1, Pho4 (S. cerevisiae) (UniProt P07270); assay: relative binding free energy (BET-seq); higher = weaker binding; conditions: reference: library average
T1 sequence: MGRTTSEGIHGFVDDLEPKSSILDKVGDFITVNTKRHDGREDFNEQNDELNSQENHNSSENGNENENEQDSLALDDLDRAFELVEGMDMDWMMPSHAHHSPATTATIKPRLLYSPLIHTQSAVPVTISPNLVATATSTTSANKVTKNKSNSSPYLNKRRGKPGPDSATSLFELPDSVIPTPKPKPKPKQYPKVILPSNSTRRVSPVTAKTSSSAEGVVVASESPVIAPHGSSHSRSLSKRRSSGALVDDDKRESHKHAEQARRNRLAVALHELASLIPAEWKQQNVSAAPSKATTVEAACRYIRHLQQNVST

| Sequence | relative binding free energy [kcal/mol] |
| --- | --- |
| CAAGTCACGTGAGGTG | 0.26 |
| ATTTTCACGTGCTTGT | 0.26 |
| TGTTTCACGTGTATCA | 0.2 |
| ATTTGCACGTGCAAAT | 0.04 |
| TATGGCACGTGATAGA | -0.12 |
| GTTTGCACGTGGGGAA | -0.06 |
| TAGGTCACGTGACGAG | 0.17 |
| TTGGACACGTGTTTAC | 0.12 |
| AGCGTCACGTGCGTGG | -0.04 |
| CTTGCCACGTGTGGTA | 0 |
| GGTTCCACGTGAAAGG | 0.36 |
| AGTGACACGTGAATGT | 0.23 |
| GTGTTCACGTGGTGCC | 0.09 |
| AGGGTCACGTGCAGTA | 0.03 |
| AGTGTCACGTGTGCAT | 0.1 |
| GTAAACACGTGTTGGA | 0.05 |
| ATTGACACGTGTTCTA | 0.05 |
| TTATGCACGTGAATAT | 0.08 |
| TAAGCCACGTGGTGGT | -0.17 |
| GGATGCACGTGTGTAA | 0.11 |
| ATGGTCACGTGAGAGG | 0.25 |

| Sequence | relative binding free energy [kcal/mol] |
| --- | --- |
| GGGATCACGTGATGTG | 0.25 |
| GTTCGCACGTGAGTGA | 0.07 |
| GCACTCACGTGTGGGG | 0.3 |
| AGAGGCACGTGCTTTG | -0.22 |
| TGCTTCACGTGCTGTG | 0.2 |
| TTCGGCACGTGCGGGG | -0.16 |
| TAATTCACGTGTCTTT | 0.27 |
| TCTGGCACGTGGGCGG | -0.2 |
| TAAGTCACGTGTGTGT | 0.05 |
| AGTTTCACGTGGGCAG | 0.09 |
| TTTGACACGTGGGTTT | -0.01 |
| AGAATCACGTGGCGGT | 0.12 |
| AGGGCCACGTGTTGGG | -0.12 |
| GCTAACACGTGGGGTG | -0.13 |
| GATAACACGTGTGGAG | 0.1 |
| ATTGGCACGTGAAGCG | 0.13 |
| GGGCGCACGTGTGGTA | 0.01 |
| GACATCACGTGTGGTT | 0.21 |
| AAGGGCACGTGGCGGC | -0.14 |
| TTAGTCACGTGGGAGA | -0.04 |
| TTCGGCACGTGGCGCG | -0.05 |

| Sequence | relative binding free energy [kcal/mol] |
| --- | --- |
| AAGTGCACGTGTTACG | -0.04 |
| AATGTCACGTGTGATA | 0.11 |
| ATGAGCACGTGGGGTG | -0.33 |
| GGAGTCACGTGTGGGG | 0.24 |
| CAGGGCACGTGCGGTT | -0.18 |
| CAGGCCACGTGGGTTG | -0.22 |
| GCGTACACGTGTGTAG | 0.2 |
| GGTAGCACGTGGGGCA | -0.2 |
| TTTTTCACGTGGGTCG | 0.15 |
| CGTTACACGTGGGGTT | -0.1 |
| TGATTCACGTGTGTAG | 0.23 |
| TATATCACGTGACTGG | 0.25 |
| GCTTTCACGTGTCGTG | 0.34 |
| TCGGTCACGTGTATGG | 0.02 |
| GGGAGCACGTGGGTGA | -0.17 |
| GCGGGCACGTGGGTTT | -0.12 |
| TTGTTCACGTGTTTCA | 0.35 |
| ATTCGCACGTGATGGT | -0.02 |
| TTTTACACGTGGCAGG | 0.14 |
| ATAATCACGTGTCGGT | 0.12 |
| TGCAGCACGTGGTTAT | -0.2 |
